Test results taken from the RNAGym collection of RNA variant scans (doi:10.7554/elife.90254).
Read counts are not given, so values of variants with three or more changes are uncertain.

B1: LINE1-mini (parent)
chain: GGCAGAGCUCAACACAGCGUGGCAAAGUGGCUGUGGCUAGACUGCC

Variants of: B1
Assay: self-cleavage, relative activity (ratio to wild type); higher = more cleavage; in vitro, sequencing; the parent is a self-cleaving ribozyme

| Variant | self-cleavage |
| --- | --- |
| GGCAGAGCUCAACACAACGUGGCAAAGUGGCUGUGGUUAGUCUGCC [G17A C37U A41U] | 0.03 |
| GGCAGAGCACAACACAGCGUGUCAAAGAGGCUGUGGCUAGACUGCC [U9A G22U U28A] | 0.05 |
| AGCAGACCUCAUCACAGCGUACCAAAGUGGCUGUGGCUAGACCGCC [G1A G7C A12U G21A G22C U43C] | 0.07 |
| GGCAGAGAUCAACACAGCGUUGCAAAGUGGCUCUGGCUAGACAGCC [C8A G21U G33C U43A] | 0.03 |
| GGCAGAACUCAACAAAGCGUGGCAAAGCGGCUGUGGCUAGACUGCC [G7A C15A U28C] | 0.13 |
| GGCAGAGCUCAACACAGCGUGGCAAAGUGGAUGUGGUUAGCAUGCC [C31A C37U A41C C42A] | 0.02 |
| GGCAGACCUCAACACAGCGUGGCAAAGUGGCUCUGGCUAGAGUGCC [G7C G33C C42G] | 0.08 |
| GGCAAAGCUAAACACAGCGUGGCAAAGUGGCUGUGGCCAGACUGCA [G5A C10A U38C C46A] | 0.04 |
| GGCAGAGCUCAUCACAGCAUGCCCAAGUGGCUGUGGCUAGACUGCC [A12U G19A G22C A24C] | 0.04 |
| GGCAGAGCUCAAAACAGCGUGGCAAAGUGACUGUGCCUAGACUGCC [C13A G30A G36C] | 0.09 |
| GGCAGAUCUCAACACAGCGUGGCAAAGUAGCUGUGGCUAGACUGAC [G7U G29A C45A] | 0.24 |
| GGCGGAGCUCGACACAGCAUGGCACAGUGGCUGUGGCACGACUGCC [A4G A11G G19A A25C U38A A39C] | 0 |
| GGCUGAGCUCAACACAGCGUGGCAAAGUUGCUGUGGCUAGACUGCG [A4U G29U C46G] | 0.07 |
| GGCAGAGCUAAACAUAGCGUGGCAAAGUGGCUGUGACUAGAGUGCC [C10A C15U G36A C42G] | 0.02 |
| GGCAGAGCUCAACACGGUGUGGCAAAGUGGCUGUGGCUAGUCUACC [A16G C18U A41U G44A] | 0.05 |
| GGCAGAGCUCAACACAGCGUGACAAUGUGGCUGUGGCUACACUGCC [G22A A26U G40C] | 0.06 |
| GGGAGAGCUGAACACAGCGUGGCAAAGUGGCUGUGGUUAGACUGCC [C3G C10G C37U] | 0 |
| GGCAGGGCUCGACACAGCGCGGCAAAGUGGCUGUUGCUAGACUGUC [A6G A11G U20C G35U C45U] | 0.01 |
| GGCAGAGCUCAACAAAGCCUGACAAAGUGGCUCUGGCUAGACUGCC [C15A G19C G22A G33C] | 0.16 |

| Variant | self-cleavage |
| --- | --- |
| GGCAGAGCUCAACACAGCGUUGCAAAGUGGCUUUGGCUAAACUGCC [G21U G33U G40A] | 0.11 |
| GGCAGAGCUCAGCAUAGCGUGGCAAAGGGGCUGUGGCUAGACUGCC [A12G C15U U28G] | 0.02 |
| GGCAGAGCUAAACACAGAGUGGCAGCGUGGCUGUGGCUCCACCGCC [C10A C18A A25G A26C A39C G40C U43C] | 0 |
| GGCAGAGCACAACACAGCGUCGCAAAGUGACUGUGGCUAGACUGCC [U9A G21C G30A] | 0.1 |
| GGCAGAGCUCAACACAGCGUGGCAUAGUGGGUGUGGCUAGACUGUC [A25U C31G C45U] | 0.05 |
| GGCAUAGCUCAACACAGCGUGGCAAAGUGGCUGUGGAUAGUCUGCC [G5U C37A A41U] | 0.34 |
| GGCAGAGUUCAACACAGCGUGGCAAACUGGCUGUGGCUGGACUGCC [C8U G27C A39G] | 0.05 |
| GGCAGAGAUCAACACUGCCUGGCAAAGUGGCUGUGGCUAGACUGCC [C8A A16U G19C] | 0.09 |
| GGCAGAUCUCAACACCGCGUGGCAAAGUGGCUGUGGCUAUAGUGCA [G7U A16C G40U C42G C46A] | 0.25 |
| GGCAGAGCUCAACACAGCUAGGCAAUGUGGCUCUGGCUAGACUGAC [G19U U20A A26U G33C C45A] | 0.03 |
| GGCAAAGCUCAUCACAGCGUGGCACAGUGGCUGUGGCUAGACUGCC [G5A A12U A25C] | 0.34 |
| GGCAGAGCUCAACACACCGUGGCAAAGUUGCGGUGGCUAGACUGCC [G17C G29U U32G] | 0.05 |
| GGCGGAGCUCAACACAGCGUGGCAAAGUGGCUGUGGCUAGACCGUC [A4G U43C C45U] | 0.64 |
| GGCAGAGCCCAACACGGCGUGCCUAAGUGGCUGUGGCAAGACUGCG [U9C A16G G22C A24U U38A C46G] | 0 |
| GGCGGAGAUCAACACAUCGUGCCAUAGUGGCUGUGGCUAGACUGCC [A4G C8A G17U G22C A25U] | 0.29 |
| GGCAGAGCUCAAAACAGCGUUGCAAAGUGGCUGUGGCUAGUCUGCC [C13A G21U A41U] | 0.1 |
| UGCAGAGCUCAACACAGCGAGGCAAAGUGUCUGUGGCUAGACUGCC [G1U U20A G30U] | 0.93 |
| GGCAGGGCUCAACACAGCGUGGCAAAGUGGCUGUGACUCGACUGCC [A6G G36A A39C] | 0.2 |
| CGCAGUGCUCAACACAGCGUGGCAAAGUGGCUGUGGAUAGACUGCA [G1C A6U C37A C46A] | 0.02 |

| Variant | self-cleavage |
| --- | --- |
| GGCACAGCUCGAUACAGCGUGGCAAAGUGGCUGUGGCUAGACUGCC [G5C A11G C13U] | 0.02 |
| GGCAGAGCUAAACACAGCGUGGCAAACUGGCUGUCGCUAGACUGCC [C10A G27C G35C] | 0.04 |
| GGCGGAGCUAAUCAUAGCGUGGCAAAGUGGCUGUAGCUAGACUGCC [A4G C10A A12U C15U G35A] | 0.05 |
| GGCAGGGUUCAACACAGCGUGGCAAAGUGGCUGUGGCUAUACUGCC [A6G C8U G40U] | 0.04 |
| GGCAGAGCUCAACAAAGCUUUGCAAAGUGGCUGUGGCUAGACUGCC [C15A G19U G21U] | 0.04 |
| GGCGGAGCUCAGCACAGCGUGGCAAAGUGGCAGUGGCUAGACUGCC [A4G A12G U32A] | 0.08 |
| GGCAGGGUUCAACACAGCGUCGCAAAGUGGCUGUGACUAGUCUGCG [A6G C8U G21C G36A A41U C46G] | 0.06 |
| GGCAGUGCUCACCACAGCGUGGCAAAGUGGCUGUGGCUACACUGCC [A6U A12C G40C] | 0.01 |
| GGCAGCGCUCAACACAGCGUGGCAAAGUGGCUGUGCGUAGACUGCC [A6C G36C C37G] | 0.53 |
| GGCUGAGCUCAACACAGCGUGGGAUAGUGGCUGUGGCUAGACUGCC [A4U C23G A25U] | 0.07 |
| GGCAGAGCUCAACACAGCGUGGCAAAGAGACUGUGGCUAGACUGCG [U28A G30A C46G] | 0.2 |
| GGCAGAGCUCAACACAGAGUUGCAAAGUGGCUCUGGCUAGAGUGCC [C18A G21U G33C C42G] | 0 |
| GGCAGAGCUCAACACAGCGUGGCACAGUGGCUGUGGCUAGGCUUCC [A25C A41G G44U] | 0.08 |
| GGCAGAGCGCAACACCGCGUGGCACAGUGGCUGUGGCUAGACUGCC [U9G A16C A25C] | 0.09 |
| GGCAGAGCUCAAUACCGCGUGGCAAAGUGGCUGUUGCUAGACUGCC [C13U A16C G35U] | 0.19 |
| GGAAGAGCUCAUAACAGCGUGGCAAAGUGGCUGUGGCUAGACUGCC [C3A A12U C13A] | 0.55 |
| CGCAGACCUCAACACAGCGUGGCAAAGUGGCUGUGGCUAGACCGCA [G1C G7C U43C C46A] | 0.03 |
| GGCCGAGCUCAAAACAGCGUCGCAAAGUGGCUGUGGCUAGACUGCC [A4C C13A G21C] | 0.05 |
